Measurements as given in PubChem BioAssay AID1963576 (National Center for Advancing Translational Sciences (NCATS), 2024).
About 60 (0.1%) of roughly 46,000 compounds were called active. Inconclusive results (about 3%) are left out. The call rests on the fitted dose curve; in most records, active means well fitted inhibition curve with a large enough effect; inconclusive means small, poorly fitted or top-dose-only effect; inactive means no such curve, though single readings can be large or run the other way. The list shows a part of the results.

Experiment: Primary qHTS assay for Inhibitors of ovarian cancer metastasis using an organotypic tumor microenvironment (TME) model. Further: nearly all actives have a fitted effect of over 65% in size.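 On activity change, negative = inhibition: plate controls were DMSO wells for no effect and tomatine positive control wells for full effect.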
Conditions: SKOV3ip1-GFP adhesion/invasion on 3D omental model, fluorescence; series mostly up to 45.8 µM; activity change, negative = inhibition: at the top concentration
Summary of the method: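 qHTS, 4-pt dose (0.36-46 umol/L); SKOV3ip1-GFP, 1,200 cells/well, no FBS; primary omental fibroblast/mesothelial co-culture 48 h pre-grown; 2 h RT + 16 h 37 C; PBS wash, 4% PFA; GFP count 488/509 nm.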

Activity change, negative = inhibition, inactive:
CCOCCCNc1nc2cc(OC)c(OC)cc2c2nc(-c3ccccc3)nn12 2.56%, COc1ccc(C2C(C(=O)Nc3ccccc3)=C(C)Nc3nc(-c4ccccc4Cl)nn32)cc1OC (centres undefined) -0.765%, Cc1ccc(CNC(=O)CN(c2cc(C)cc(C)c2)S(=O)(=O)c2c(C)noc2C)cc1 8.3%, O=C(CSc1cn(CC(=O)N2CCCC2)c2ccccc12)Nc1ccccc1C(F)(F)F 1.89%, Cc1cccc(Cn2c(=O)n(CC3CCC(C(=O)N4CCC(C)CC4)CC3)c(=O)c3sccc32)c1 (centres undefined) -1.06%, COc1cc2[nH]c(=O)n(CCCCCC(=O)N3CCN(c4ccc(Cl)cc4)CC3)c(=O)c2cc1OC -11.2%, Cc1[nH]nc2ccc(-c3cncc(OC[C@@H](N)Cc4ccccc4)c3)cc12 15.3%, O=C(Nc1cccc(Br)c1)c1cc(-c2ccc3c(c2)OCCO3)on1 -7.21%, COc1cc2nc(NCc3ccccc3)n3nc(-c4ccccc4)nc3c2cc1OC 5.73%, COc1ccc2c(c1)cc1c(=O)n(CC(=O)NCCc3ccccc3)nc(C)n12 -9.97%, CCOC(=O)Cc1ccc(NC(=O)N2CC(C)Oc3ccc(Cl)cc32)cc1 (centres undefined) -14.8%, Cc1nc2ccn(Cc3cccs3)c(=O)c2cc1C(=O)N1CCN(c2ccccc2)CC1 4.61%, COc1ccc(-n2c(=O)c3ccc(C(=O)NCc4ccc(C)cc4)cc3n(Cc3ccc(C)cc3)c2=O)cc1 15.7%, Cc1ccc2c(c1)N(S(=O)(=O)c1ccc3c(c1)NC(=O)CC(=O)N3)CCO2 -5.82%, Cc1ccccc1CNCCSc1nnnn1-c1ccccc1 6.66%, Cc1ccc(-n2c(=O)c3ccc(C(=O)NCc4ccco4)cc3n(Cc3ccc(Cl)cc3)c2=O)cc1 -0.367%, Cc1ccc(-n2nc3c(=O)n(CC(=O)NCc4ccco4)nc(C)c3c2C)cc1 -4.41%, Cc1cc(C)c2sc(N3CCN(C(=O)C4CC4)CC3)nc2c1 -9.81%, Cc1nc2nc(SCC(=O)N(Cc3ccccc3)C(C)C)nn2c(C)c1Cc1ccccc1Cl -0.317%, COC(=O)c1cc2occc2n1Cc1nc(-c2cccc(Br)c2)oc1C 1.62%, COc1ccc(C(=O)c2sc(Nc3cc(Cl)ccc3C)nc2N)cc1OC -10.7%, Cc1cc(C)c(NC(=O)Cn2c(=O)n(-c3ccc(F)cc3)c(=O)c3c(C)c(C(=O)N(C)C)sc32)c(C)c1 -0.527%, CCc1ccc2ncc3c(-c4ccc(C)cc4)nn(CC(=O)Nc4ccc(C)cc4)c3c2c1 5.59%, CCOC(=O)c1cnc2ccc(Cl)cc2c1Nc1ccc(OCC)cc1 0.555%, CCOc1cc(C2Sc3ccccc3NC3=C2C(=O)c2ccccc23)ccc1O (centres undefined) -21.4%, CCOC(=O)c1ccc(NC(=O)CC2C(=O)N(c3ccc(F)cc3)C(=O)N2Cc2ccc(C)cc2)cc1 (centres undefined) 2.82%, Cc1nc(-n2nc(C)c(CCC(C)C)c2C)sc1C(=O)Nc1ccc(Br)cc1 -2.54%, CC(=O)c1ccc(NC(=O)CSc2nc(C3CCCC3)nc3c2c(=O)n(C)c(=O)n3C)cc1 15.8%, CCCCOc1ccccc1C(=O)Nc1onc2c1CCCC2 -20.5%, CC1CCN(c2oc(-c3ccc(COc4ccc(Cl)cc4)o3)nc2C#N)CC1 -11.1%, COc1ccc(CNC(=O)C2=C(C)C(=O)OC23CCN(C(C)=O)CC3)cc1 9.52%, CCOc1ccccc1CNC(=O)c1ccc(Cn2c(SCc3ccccc3)nc3cccnc32)cc1 1.37%, Fc1ccc(N2CCN(Cc3cccn3-c3nnc(N4CCN(C5CCCCC5)CC4)s3)CC2)cc1 -11.9%, CC(C)[C@H](O)C(=O)N[C@@H](C)C(=O)N[C@@H]1C(=O)N(C)CCc2ccccc21 4.02%, Cc1ccc(NC(=O)C2CCCN(c3cnccn3)C2)c(C)c1 (centres undefined) -8.07%, CCc1ccc(-c2nc(CSCC(=O)N3CCN(c4ccc(F)cc4)CC3)c(C)o2)cc1 -0.927%, CC(=O)Nc1ccc(Nc2ncnc3c2c(-c2ccccc2)cn3-c2ccc(C)c(Cl)c2)cc1 -30.5%, Cc1ccccc1Cn1c(SCc2ccc(C(=O)NC3CCCC3)cc2)nc2ccncc21 10.5%, CCCOc1cccc(C(=O)Nc2ccc(-c3cc4ccccc4oc3=O)c(C)c2)c1 -2.43%, CCOc1ccccc1NC(=O)c1cc2c(=O)n(Cc3cccnc3)ccc2nc1C 10.9%, CCOC(=O)c1ccc(NC2=CC(c3ccc(F)cc3)N(c3ccc(C(=O)OCC)cc3)C2=O)cc1 (centres undefined) 17.7%, COc1cc(C2NC(=O)c3c(sc4c3CCN(C)C4)N2)ccc1OC(=O)c1ccccc1 (centres undefined) 0.887%, COc1ccc(NC(=O)N2CCN3CCCCC3C2)cc1OC (centres undefined) 0.358%, COc1cccc(NC(=O)N2CCN(C(=O)c3nsc4ccccc34)CC2)c1 -8.17%, Cc1nc2c(c(C)nn2-c2ccccc2)c(C)c1CCC(=O)NCCc1ccc(Cl)cc1 6.32%, COc1ccccc1N=c1scc(-c2ccc(S(=O)(=O)N3CCCC3)cc2)n1C 7.29%, COc1cc(-c2cc(OC)c3c(C)oc(C)c3c(=O)c2)ccc1OC(=O)c1cccc(Cl)c1 -22.9%, COc1ccc(NC(=O)CCCN2C(=O)COc3ccc(C)cc32)cc1OC -5.12%, CCOC(=O)c1ccc(NC(=O)c2nn(C)c3c2COc2ccccc2-3)cc1 -0.151%, COCCCNC(=O)c1ccc2c(c1)NC(=O)C(C(C)C)N2 (centres undefined) -6.01%, CC(C)(C)OC(=O)N1CCC(c2c(C(=O)N3CCN(C(=O)c4ccco4)CC3)cnn2-c2ccccc2Cl)CC1 -2.99%, O=C(Cn1c(=O)n(-c2ccc(Cl)cc2)c(=O)c2c3c(sc21)CCC3)c1ccccc1 2.76%, CCOC(=O)c1c(NC(=O)CSc2cn(CCNC(=O)c3ccccc3F)c3ccccc23)sc2c1CCCC2 13%, Cc1ccccc1C(=O)c1cccn1CC(=O)NCc1cccc(Cl)c1 -1.12%, CC(C)(C)NC(=O)c1oc2ccccc2c1NC(=O)c1ccc(F)cc1 0.253%, CCc1ccc(S(=O)(=O)c2nnn3c2nc(NCCNC(C)=O)c2cc(Cl)ccc23)cc1 -1.9%, COCCN(CCOC)c1ncnc2c1c(-c1ccccc1)cn2-c1ccc(C)c(Cl)c1 47.8%, CCCCNC(=O)C(CC)Sc1nc2ccccc2c(=O)n1CCc1ccc(OC)c(OC)c1 (centres undefined) -5.74%, Cc1ccc(Cn2cc(CCC(=O)NCc3ccc(OC(C)C)cc3)c3ccccc32)cc1 -3.56%, Cn1c(SCc2ccccc2F)nc2c([nH]c3ccccc32)c1=O 0.842%, COc1ccccc1C(=O)Nc1ccc(OCc2cc(=O)n3cc(C)sc3n2)cc1 2.37%, COc1ccc(C)cc1NC(=O)c1ccc2c(c1)nnn2C1CCCC1 80.3%, CCc1ccc(NC(=O)Cn2c(-c3cncs3)nc3ccccc32)cc1 12.7%, Cc1ccc(NC(=O)Cn2c(=O)n(Cc3ccc4c(c3)OCO4)c(=O)c3ccc(C(=O)NC4CCCCC4)cc32)c(C)c1 36.2%, c1ccc(OCCn2c(COc3ccccc3)nc3ccccc32)cc1 -18.6%, Cc1ccc2[nH]c(=O)c3cc(C(=O)NCCc4ccc(Cl)cc4)sc3c2c1 -3.82%, CCc1ccc(NC(=O)c2cnc3sc(N4CCCC4)nn3c2=O)cc1 3.61%, Cc1cc2nc(-c3ccc(OCc4ccccc4)cc3)cc(C(F)(F)F)n2n1 3.77%, O=S(=O)(Nc1ccc(-c2ccc(N3CCCC3)nn2)cc1)c1cc(F)ccc1F -2.3%, CC1=C(C(=O)Nc2ccc(C)cc2C)C(c2ccccc2F)n2nc(SCC(=O)c3ccc(C)cc3)nc2N1 (centres undefined) -19.8%, O=C(Cn1c(=O)c2cccn2c2cccnc21)NCc1ccccc1F 4.84%

outcome, inactive:
COC(=O)c1ccccc1NC(=O)c1ccc2c(Cl)c3c(nc2c1)CCCC3, Cc1ccc2c(c1)N(CC(=O)NCCCN1CCCCC1C)C(=O)c1cccnc1O2 (centres undefined), CSc1ccc(CCNc2ncnc3onc(-c4ccc(Cl)cc4)c23)cc1, CC(=O)c1ccc(NC(=O)CCc2nc(-c3ccc(C)cc3)no2)cc1, COc1cccc(-c2nc3c(c(SCC(=O)Nc4cc(C)ccc4C)n2)Cc2c(CO)cnc(C)c2O3)c1, CSc1ccc(CNC(=O)CCc2c(C)nn(-c3ccc(N4CCCC4)nn3)c2C)cc1, COc1ccc(CCNC(=O)CCCn2c(SCC(N)=O)nc3cc4c(cc3c2=O)OCO4)cc1OC, CCOC(=O)N1CCc2c(sc3c2c(=O)n(Cc2ccccc2)c(=O)n3Cc2ccc(C)cc2)C1, CC(C)OC(=O)/C(C#N)=C/c1ccc(-c2ccc(Cl)c(Cl)c2)o1, Cc1cc(C)c2nc(NC(=O)c3ccc(S(=O)(=O)N4CCC(C)CC4)cc3)sc2c1, CCOC(=O)c1cc(-c2ccccc2)n(-c2cccc(C(=O)N(C)c3ccc(C)cc3)c2)c1C, CCc1ccccc1NC(=O)c1cc2c(Cl)nc3ccccc3c2s1, CCOC(=O)c1c(C)[nH]c(C)c1S(=O)(=O)N1CCC(C(=O)Nc2ccc(C)c(Cl)c2)CC1, CCCSc1nc2sc3c(c2c(=O)n1-c1cccc(Br)c1)CC(C)(C)OC3, Cc1c(NC(=O)c2ccc(Br)o2)cccc1-c1nc2ccccc2o1, Cc1cccc(C)c1NC(=O)CCS(=O)(=O)c1cccc2nonc12, COc1ccccc1CNC(=O)CCNS(=O)(=O)c1cccc2nsnc12, CC(C)c1ccc(OCc2cc(=O)n3c(-c4ccccc4)csc3n2)cc1, Cc1ccc(S(=O)(=O)c2nnn3c2nc(NCc2ccccc2Cl)c2sccc23)cc1, COc1ccc(CCN2C(=O)CN(C3CCC(C)CC3)C(=O)C2c2ccc(OC(C)C)c(OC)c2)cc1OC (centres undefined), CCc1nn(CCCC(=O)NC(C)c2ccccc2)c(=O)c2cc3occc3n12 (centres undefined), CCn1c2ccccc2c2cc(CN3CCN(Cc4ccccc4C)CC3)ccc21, O=C1c2oc3ccccc3c(=O)c2C(c2cccc(Cl)c2)N1c1ccccn1 (centres undefined)
